In all, about 33,000 sequences were measured (“E-score (-0.5 to 0.5)”: median about -0.054, highest 2% from about 0.39 on). The list shows a part of the results.
target: Ylr278c (UniProt Q05854); assay: PBM E-score (8-mer binding enrichment) (E-score (-0.5 to 0.5)); higher = stronger / more preferred TF binding; most listed sequences are background and not binding sites; conditions: protein concentration: 200 nM; construct: GST-DNA-binding domain
How it was run: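 Full-length yeast transcription factors or their DNA-binding domains, GST-tagged and expressed with PURExpress, were applied at about 100-200 nM to universal all-10-mer Agilent arrays. These arrays had been made double-stranded by primer extension on fresh or once-stripped slides. Detection used fluorescent anti-GST, normalisation used masliner, and E-scores for ungapped eight-base words pooled with reverse complements came from the Universal PBM Analysis Suite.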

| Sequence | PBM E-score |
| --- | --- |
| GGTTACAC | -0.142 |
| AAACCACG | -0.0455 |
| CCCGAGAC | 0.185 |
| ATTTGACG | 0.0515 |
| CCTCCCTC | 0.0572 |
| GCAACTCC | 0.327 |
| GAACCCAA | -0.177 |
| ATCAGATG | -0.225 |
| GGATCTCA | 0.0213 |
| CGTGATAC | -0.152 |
| AATGCGGC | 0.171 |
| GTATGGGA | -0.174 |
| CCTATTGC | -0.127 |
| AAATACCT | -0.0551 |
| AAATTCTC | 0.0592 |
| GCATGGGA | -0.0116 |
| CGACCTGA | -0.183 |
| GATCCCAA | -0.0308 |
| ACACTGGA | -0.185 |
| GCTGTATA | -0.289 |
| AACGCCGT | 0.272 |
| AATCAGCG | 0.139 |
| GACATACA | 0.148 |
| ACTAACTG | 0.0376 |
| CATTTGTC | 0.0384 |

| Sequence | PBM E-score |
| --- | --- |
| GTAGAGGA | -0.236 |
| GCCAGAGA | -0.194 |
| CATGAGGG | -0.13 |
| ACCCTCGG | 0.244 |
| CATACTGA | -0.172 |
| GAAGGTTA | -0.0951 |
| CCCTTGAG | -0.158 |
| GCCACTGA | -0.0434 |
| ATAACTTC | 0.0592 |
| AAGGAGGA | -0.247 |
| CCATAACG | -0.0935 |
| GAGCCTGA | -0.111 |
| GGAAAATA | 0.189 |
| AACGTCTA | -0.118 |
| AGAGAAGG | -0.135 |
| ATTGAATC | -0.143 |
| ATTTCACG | 0.152 |
| AGACTAAG | -0.103 |
| GAGCTTGA | -0.109 |
| CGGAACCC | 0.341 |
| ACCTGCTA | -0.16 |
| ACTTATCC | 0.148 |
| AGTTGAGG | -0.0713 |
| GCCTGGAC | -0.0494 |
| AAGGTTTC | -0.0319 |

| Sequence | PBM E-score |
| --- | --- |
| GCGTCTAA | -0.175 |
| AAATACTC | 0.0296 |
| AGGTCGCG | 0.0688 |
| ACCTACCA | -0.295 |
| CGAGAGGC | -0.107 |
| CGCTAGAA | -0.0105 |
| ATGGCGGG | 0.28 |
| CGGCAGCA | 0.0932 |
| TCGTGGCA | -0.204 |
| GCGCTTAA | -0.117 |
| CGACTTCC | 0.159 |
| GTCCGCAA | 0.334 |
| ATGGCAGG | 0.0995 |
| GGAGTCAC | 0.218 |
| GCCTTTCA | -0.0153 |
| AGACAAGG | -0.0396 |
| ATGGGCGA | -0.176 |
| ACTATGAA | -0.22 |
| CGCAGCTC | 0.00983 |
| AACAGACA | 0.0238 |
| AGATGCAA | -0.237 |
| AACAGCAG | -0.0354 |
| CAATTCCG | 0.465 |
| GACAGACC | -0.155 |
| ATCACGAC | -0.199 |

| Sequence | PBM E-score |
| --- | --- |
| AACAATAG | -0.241 |
| CTGATCAG | 0.0402 |
| GCACTTGA | -0.151 |
| CGTATCAA | -0.0546 |
| AGATTCTC | 0.00939 |
| ACACCTTA | -0.0662 |
| ATGCGCTC | -0.034 |
| TGATTCCA | -0.24 |
| ACATAAGA | -0.0616 |
| ATTGTCGA | -0.0143 |
| AATGCAGG | -0.0518 |
| CACATGTC | -0.157 |
| AGTGCGCA | 0.203 |
| CAGGAGCC | -0.107 |
| ACTACGAT | -0.13 |
| ATGCGCCG | 0.289 |
| GTGGCACA | -0.247 |
| AGGTTGGC | -0.0782 |
| AGTGTACC | -0.182 |
| CCGATGAA | 0.274 |
| TAGCCCGA | 0.198 |
| GCCGGCGC | 0.396 |
| CTGGTTCC | 0.0612 |
| CTTTTTTC | -0.0518 |
| AGAGTCCT | -0.0875 |

| Sequence | PBM E-score |
| --- | --- |
| GATCCTGC | -0.00417 |
| CCCGAAGC | 0.153 |
| TACTGCCA | -0.113 |
| CACTTATG | -0.0294 |
| GACCCAGA | -0.0737 |
| ATTAAAAC | 0.137 |
| GCGCCAAC | 0.0418 |
| CGCGGGAG | 0.104 |
| TCTTCTCA | 0.0619 |
| ACCAGAGT | -0.219 |
| AGGCGATC | -0.159 |
| AAGATCCC | -0.0372 |
| ACCGCGAT | 0.177 |
| CGTGGTGC | -0.084 |
| ATTGGTGA | -0.205 |
| GGATGAGA | -0.186 |
| GAGTTCAA | -0.029 |
| CCACATGC | -0.117 |
| ATTACACA | -0.0996 |
| ACTTAGGG | -0.176 |
| CGGTTTGC | 0.168 |
| AAAGATTG | -0.146 |
| CTGAATCC | -0.00381 |
| GGGCGGCA | 0.302 |
| AGGAATCG | 0.0706 |

| Sequence | PBM E-score |
| --- | --- |
| CCGAGCGG | 0.368 |
| AGCCTCAG | -0.228 |
| GTCATTTA | -0.205 |
| CATGGTGC | -0.143 |
| CACCGCGC | 0.201 |
| AAGTTTAG | -0.079 |
| AGGGTTTG | -0.0478 |
| ATCACACG | -0.0338 |
| ATTCTGAA | -0.0198 |
| CGGTTTGA | -0.079 |
| CAGGAGCA | -0.067 |
| GCGGCCGA | 0.188 |
| CATCGTCC | 0.0787 |
| AAGACTGC | -0.192 |
| ACACAGCA | -0.0577 |
| AGCGACTG | -0.344 |
| TAAATAGA | -0.0919 |
| CAAAAATG | -0.0479 |
| AAAGGTTG | -0.176 |
| CCTGACGC | -0.114 |
| AGGACAGG | -0.175 |
| CTATTTGA | -0.0257 |
| GAAGATAC | 0.0545 |
| TAATGTCA | -0.191 |
| CCCACCCA | 0.138 |

| Sequence | PBM E-score |
| --- | --- |
| AACTAGGA | -0.0121 |
| AACTATGG | -0.0862 |
| GCTAGGCC | 0.0897 |
| AGTATTAT | -0.399 |
| AGAACTTC | -0.16 |
| ACCAGAGA | -0.184 |
| GGCGAATA | 0.216 |
| GCACTAAA | 0.0873 |
| GTTAACGA | -0.203 |
| CAGCTGGA | -0.059 |
| ACTGGACG | -0.0338 |
| AGATTGTC | 0.148 |
| GGAGTCAA | 0.128 |
| AAATACGT | -0.198 |
| CTCTGCGA | -0.173 |
| CTCGTTAC | -0.336 |
| TATGTCGA | -0.131 |
| AAGGCTCC | 0.0701 |
| CCGACCCC | 0.127 |
| AACGAACG | -0.0598 |
| CTTGTCTA | -0.164 |
| CTATCACC | -0.0252 |

Source: the supplement of paper PMC3334620
